{"source": "the RNAGym collection of RNA variant scans (doi:10.1093/nar/gkz1192)", "parents": {"B1": {"name": "CPEB3 Ribozyme (parent)", "chain": "UAACAGGGGGCCACAGCAGAAGCGUUCACGUCGCAGCCCCUGUCAGAUUCUGGUGAAUCUGCGAAUUCUGCUGUAUAUCUC"}}, "note": "Read counts are not given, so values of variants with three or more changes are uncertain."}
{"variants_of": "B1", "test": "self-cleavage, relative activity (ratio to wild type); higher = more cleavage; in vitro, sequencing", "method_in_brief": "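After error-prone PCR and barcoding, CPEB3 ribozyme mutant libraries were transcribed with T7 RNA polymerase at 37°C for 5 hours, then given 15 min with DNase I before an EDTA stop, and they cleaved during both steps. Reverse transcription with template switching preceded Illumina sequencing. Relative activity divides a variant's cleaved/total read fraction by the unmutated ribozyme's. At least 5 reads were required per variant, and three batches were averaged.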"}
{"variant": "G9A A15G C38U A64G", "self-cleavage": 0.69}
{"variant": "G9A A15G C40U G55A U67A A77G", "self-cleavage": 0.05}
{"variant": "G9A A15G C40U U72A", "self-cleavage": 0.2}
{"variant": "G9A A15G G22U U25A U26C A77U", "self-cleavage": 0.33}
{"variant": "G9A A15G G52U", "self-cleavage": 0.43}
{"variant": "G9A A15G U26C U41C", "self-cleavage": 0.34}
{"variant": "G9A A15G U31A A77G", "self-cleavage": 0.07}
{"variant": "G9A A15G U31C U43A U54C U60C", "self-cleavage": 0.04}
{"variant": "G9A A15G U54C U72C", "self-cleavage": 0.14}
{"variant": "G9A A15G U60C A65G", "self-cleavage": 0.13}
{"variant": "G9A A15G U66C", "self-cleavage": 0.25}
{"variant": "G9A A15U A20U U25C A65U U69C", "self-cleavage": 0.04}
{"variant": "G9A A15U A57G A64G", "self-cleavage": 0.03}
{"variant": "G9A A15U A64G U66C", "self-cleavage": 0.06}
{"variant": "G9A A15U A64U U67C U72A", "self-cleavage": 0.04}
{"variant": "G9A A15U U25C U41A U48A", "self-cleavage": 0.25}
{"variant": "G9A A15U U74A", "self-cleavage": 0.1}
{"variant": "G9A A15U U74C U80C", "self-cleavage": 0.07}
{"variant": "G9A A15U U80C", "self-cleavage": 0.31}
{"variant": "G9A A18C U43A U80C", "self-cleavage": 0.09}
{"variant": "G9A A18C U66C", "self-cleavage": 0.22}
{"variant": "G9A A18G A20U A45U A56U A64G C79U", "self-cleavage": 0.11}
{"variant": "G9A A18G A21G U25C C40U U41A", "self-cleavage": 0.18}
{"variant": "G9A A18G A35C C37U U41C G70C U80A", "self-cleavage": 0.02}
{"variant": "G9A A18G A35U U58G", "self-cleavage": 0.15}
{"variant": "G9A A18G A57G U66C", "self-cleavage": 0.1}
{"variant": "G9A A18G C38U A47U U72C A77G U80A", "self-cleavage": 0.14}
{"variant": "G9A A18G C40U U41A A57U", "self-cleavage": 0.11}
{"variant": "G9A A18G C40U U48C U72C U74C", "self-cleavage": 0.03}
{"variant": "G9A A18G G19U A35U C71U", "self-cleavage": 0.09}
{"variant": "G9A A18G U25C U26G", "self-cleavage": 0.1}
{"variant": "G9A A18G U26C A47G U67C U78G", "self-cleavage": 0.04}
{"variant": "G9A A18G U31A A45G A57G U66C", "self-cleavage": 0.21}
{"variant": "G9A A18G U41A G61C A64G U69C", "self-cleavage": 0.05}
{"variant": "G9A A18G U41C A45U U48A", "self-cleavage": 0.12}
{"variant": "G9A A18G U43C A45G U51C U78C", "self-cleavage": 0.04}
{"variant": "G9A A18G U48A", "self-cleavage": 0.2}
{"variant": "G9A A18U A28G U54C", "self-cleavage": 0.24}
{"variant": "G9A A18U A45C A57G", "self-cleavage": 0.05}
{"variant": "G9A A18U G22A U31A U43C A45U", "self-cleavage": 0.06}
{"variant": "G9A A18U U31C", "self-cleavage": 0.37}
{"variant": "G9A A20C U25C U72C U78C", "self-cleavage": 0.04}
{"variant": "G9A A20C U69C", "self-cleavage": 0.04}
{"variant": "G9A A20G A45G U69A", "self-cleavage": 0.26}
{"variant": "G9A A20G A45U", "self-cleavage": 0.18}
{"variant": "G9A A20G C27U C29U A35G U43C A57G", "self-cleavage": 0.04}
{"variant": "G9A A20G C32U U69A U80C", "self-cleavage": 0.05}
{"variant": "G9A A20G C68A U74G", "self-cleavage": 0.01}
{"variant": "G9A A20G G36A U43C U48C", "self-cleavage": 0.17}
{"variant": "G9A A20G U25A U72C", "self-cleavage": 0.22}
{"variant": "G9A A20G U25C A45G", "self-cleavage": 0.06}
{"variant": "G9A A20G U25C U41A", "self-cleavage": 0.14}
{"variant": "G9A A20G U41C U43A A45U G55U", "self-cleavage": 0.09}
{"variant": "G9A A20G U43C A57G U69A", "self-cleavage": 0.16}
{"variant": "G9A A20U G22U U26C", "self-cleavage": 0.23}
{"variant": "G9A A20U U25C A28G A57C A64G", "self-cleavage": 0.04}
{"variant": "G9A A20U U54C A77G U80C", "self-cleavage": 0.08}
{"variant": "G9A A20U U72C", "self-cleavage": 0.29}
{"variant": "G9A A21C U25C U26G U80G", "self-cleavage": 0.04}
{"variant": "G9A A21G G22U U26C U49C U54A A57G", "self-cleavage": 0.04}
{"variant": "G9A A21G G42A U66A", "self-cleavage": 0.1}
{"variant": "G9A A21G U25A U26C A45U U48C", "self-cleavage": 0.04}
{"variant": "G9A A21G U31A A47G U78C", "self-cleavage": 0.19}
{"variant": "G9A A21U C40G U43C A45U U66C U78C", "self-cleavage": 0.06}
{"variant": "G9A A21U U25C U26G C38U U51C", "self-cleavage": 0.04}
{"variant": "G9A A21U U80C", "self-cleavage": 0.11}
{"variant": "G9A A28C A45G A56G A64G U72C", "self-cleavage": 0}
{"variant": "G9A A28G A57U U76C", "self-cleavage": 0.18}
{"variant": "G9A A28G C29U", "self-cleavage": 0.06}
{"variant": "G9A A28G U43C", "self-cleavage": 0.19}
{"variant": "G9A A28G U43C U51A U74C", "self-cleavage": 0.08}
{"variant": "G9A A28G U67A U72A U76C A77G", "self-cleavage": 0.03}
{"variant": "G9A A28G U80A", "self-cleavage": 0.09}
{"variant": "G9A A28U A56G", "self-cleavage": 0.07}
{"variant": "G9A A28U A57G U58C U78A", "self-cleavage": 0.08}
{"variant": "G9A A28U A65G U69C U80C", "self-cleavage": 0.05}
{"variant": "G9A A35C U41C U67C G70C", "self-cleavage": 0.09}
{"variant": "G9A A35G A45U U49C U69C", "self-cleavage": 0.06}
{"variant": "G9A A35G U41C A45G A65G U78C U80A", "self-cleavage": 0.36}
{"variant": "G9A A35G U49C U54G U60A", "self-cleavage": 0.11}
{"variant": "G9A A35U A45C U60C U76A", "self-cleavage": 0.06}
{"variant": "G9A A35U U41C U80C", "self-cleavage": 0.36}
{"variant": "G9A A45G U48C", "self-cleavage": 0.17}
